# In PubChem BioAssay AID488969 (Vanderbilt High Throughput Screening Facility, 2010):
# In all, about 110,000 compounds were measured (“z-score”: median about -0.1, highest 2% from about 2 on). The list shows a part of the results. The source made the active and inactive calls.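 The calls were made as follows: active = z-score in the third read window above 3 or below -3; inactive = the rest.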
# Biological target: Metabotropic glutamate receptor 8 (Rattus norvegicus) (UniProt P70579)
# Assay: rat mGluR8 modulators via GIRK flux, primary screen, cell-based, thallium flux, HTS (AID 488969)
# Conditions: HEK293 rat mGluR8, GIRK (G protein-gated inwardly rectifying potassium channel) thallium flux, FluoZin2; at 10 µM; stronger effect = higher value; submaximal glutamate (EC20) added with thallium
# Sequence of UniProt P70579 (P70579 whole entry, looked up): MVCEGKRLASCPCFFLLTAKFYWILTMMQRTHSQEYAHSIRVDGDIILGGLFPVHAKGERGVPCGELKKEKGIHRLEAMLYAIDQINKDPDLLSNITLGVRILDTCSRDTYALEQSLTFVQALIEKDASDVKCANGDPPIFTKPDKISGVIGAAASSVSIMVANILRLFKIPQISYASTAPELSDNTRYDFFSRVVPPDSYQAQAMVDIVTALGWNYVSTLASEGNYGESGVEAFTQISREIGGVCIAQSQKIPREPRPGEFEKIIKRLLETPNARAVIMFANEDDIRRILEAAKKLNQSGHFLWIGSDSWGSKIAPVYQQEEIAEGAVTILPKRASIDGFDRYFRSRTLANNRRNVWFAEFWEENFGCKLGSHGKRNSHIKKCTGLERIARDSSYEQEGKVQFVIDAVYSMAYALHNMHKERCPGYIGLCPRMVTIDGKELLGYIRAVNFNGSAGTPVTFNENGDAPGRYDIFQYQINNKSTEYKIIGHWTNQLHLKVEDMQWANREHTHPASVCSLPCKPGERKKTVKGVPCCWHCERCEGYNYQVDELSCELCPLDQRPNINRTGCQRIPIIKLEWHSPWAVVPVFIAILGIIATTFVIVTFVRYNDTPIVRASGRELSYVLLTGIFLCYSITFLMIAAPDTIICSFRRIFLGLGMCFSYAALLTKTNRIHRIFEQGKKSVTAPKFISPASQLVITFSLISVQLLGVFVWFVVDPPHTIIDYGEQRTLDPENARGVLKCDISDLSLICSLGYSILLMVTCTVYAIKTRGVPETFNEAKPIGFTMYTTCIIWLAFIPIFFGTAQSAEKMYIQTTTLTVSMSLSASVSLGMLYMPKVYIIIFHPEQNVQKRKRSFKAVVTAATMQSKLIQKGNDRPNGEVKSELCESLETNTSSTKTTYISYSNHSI
row,Compound,z-score
1,COc1ccc(C(=O)Nc2ccc3nc(N4CCCCC4)cc(C)c3c2)cc1OC,-0.383
2,O=[N+]([O-])c1cc(-c2nc(-c3ccncc3)no2)ccc1Cl,0.67
3,CCn1c(NCc2cc(OC)ccc2OC)nc2ccccc21,-0.0532
4,Cc1cc(C)nc(N2CCC(C(=O)NC3CCCCCC3)CC2)n1,0.0648
5,CC(CNC(=O)C1CCCCC1C(=O)O)c1ccccc1 (centres undefined),0.171
6,CC1=C/C(=N\OS(=O)(=O)c2ccccc2)C=CC1=O,3
7,COc1ccc(NC(=O)C2(c3ccc(NC(=O)c4ccc(OC)c(OC)c4)cc3)CCCC2)cc1,-0.26
8,O=C(Cc1cccs1)Nc1ccc(N2CCOCC2)cc1,0.0497
9,COC(=O)c1sc(NC(=O)c2csc3c2CCCC3)nc1C,0.174
10,Cc1cc(C)c2nc(C(F)(F)F)nc(N3CCN(C(=O)c4ccco4)CC3)c2c1,-0.263
11,CCOC(=O)CSc1nnc(Cc2ccccc2)n1-c1ccc(C)cc1,-0.0699
12,CCOc1ccc(Cc2c(Cl)nc(SC)nc2N(C)C)cc1,-0.458
13,CCN1C(=O)CC(NNC(=O)c2ccc(Cl)cc2)C1=O (centres undefined),0.0625
14,Cc1ccc(/C=N/NC(=O)c2cccc(S(=O)(=O)Nc3ccccc3Cl)c2)o1,-0.205
15,COc1ccc(OC)c(S(=O)(=O)N(C)CC(=O)Nc2ccc3c(c2)OCO3)c1,0.377
16,CCOC(=O)C(CCOc1cccc(CC)c1)C(=O)OCC,-0.709
17,Cc1nnc(SCc2ccc(C(=O)O)cc2)s1,-0.157
18,CC(=O)c1n[nH]nc1Nc1nc(C)cc(C)n1,0.00428
19,Cc1ccc(S(=O)(=O)N2c3ccccc3OCC2C(C)(C)C)cc1 (centres undefined),-0.00945
20,COc1ccc(C2C(C(=O)Nc3cccnc3)=C(C)Nc3nc(-c4ccco4)nn32)cc1 (centres undefined),0.0344
21,Nc1nonc1-c1noc(-c2ccc(Br)o2)n1,-0.0126
22,COc1cccc(/C=C/C(=O)c2ccc(NS(=O)(=O)c3ccc(C)cc3)cc2)c1,-0.162

row,Compound,z-score
1,COc1cccc(CNCCSc2nnnn2C)c1OC,0.709
2,COC(=O)COc1ccc(-c2nn(C)c(=O)c3ccccc23)cc1,-1.28
3,O=C(CN1C(=O)C2CC=CCC2C1=O)Nc1nnc(SCc2ccc(F)cc2)s1 (centres undefined),-0.317
4,O=C(CN(Cc1ccccc1F)C(=O)Cn1nnc(-c2cccs2)n1)NC1CCCCC1,0.115
5,C=CCOC(=O)/C(=C\C=C\c1ccccc1)NC(=O)c1ccccc1,-0.578
6,O=C(Nc1ccccc1)C1=C(O)CC(c2ccc(Cl)cc2)N2CCN=C12 (centres undefined),-0.724
7,O=C(Nc1c(C(=O)c2ccccc2)oc2ccccc12)c1cc(-c2ccccc2O)n[nH]1,0.0207
8,CCCCN(C(=O)CSc1nncn1-c1ccccc1)c1c(N)n(Cc2ccccc2)c(=O)[nH]c1=O,-0.301
9,O=C(Nc1nnc(C2CC2)s1)C1Cc2ccccc2CN1S(=O)(=O)c1cccs1 (centres undefined),-1.65
10,c1ccc(CSc2nnc(NC3=NCCCCC3)s2)cc1,-0.549
11,O=C(NNC1=C(C(=O)C(F)(F)F)CCC1)c1ccc(Br)cc1,1.93
12,CC1CCC(NC(=O)CN2CCCN(Cc3ccc(F)cc3Cl)C2=O)CC1 (centres undefined),0.115
13,O=C(CN1CCCc2ccccc21)N/N=C/c1ccc(O)cc1O,0.247
14,COC(=O)c1cc([N+](=O)[O-])ccc1N1CCN(Cc2ccccc2)CC1,-0.306
15,O=C(NCC1CCCO1)C(c1cccnc1)N(C(=O)Cc1cccs1)c1cccnc1 (centres undefined),0.0639
16,Cc1cc(C)nc(/N=C(\N)Nc2ccc(F)c([N+](=O)[O-])c2)n1,-0.14
17,CC(OC(=O)C1CCCCC1)c1nc2ccccc2[nH]1 (centres undefined),0.156
18,O=C(COc1ncnc2c(Cl)cc(Cl)cc12)NC1CCCCCC1,-0.0836
19,CCN(CC)CCn1c2ccccc2c2nc(C)sc21,0.43
20,Cc1ccc(C)c(NC(=O)CSc2nnc(-c3n[nH]c4ccccc34)o2)c1,-0.0139
21,Cc1nc2ccccc2c(=O)n1N,0.0349
22,CC1=C(C(=O)OCc2ccc3c(c2)OCO3)C(c2ccc(Cl)cc2)NC(=O)N1 (centres undefined),0.119

row,Compound,z-score
1,CCCN1/C(=C2/SC(=S)N(CC)C2=O)C=Cc2ccccc21,1.17
2,O=C(CSc1nnc(NC(=O)C2CC2)s1)NCc1ccco1,0.00676
3,Cc1ccc(S(=O)(=O)NCc2c(-c3ccccc3)c3cc(Cl)ccc3[nH]c2=O)cc1,-0.178
4,CCc1c(C)nc(SCC(N)=O)c(C#N)c1C,-0.401
5,Cc1cc(Br)c(NC(=O)COC(=O)CSc2nnc(-c3ccc(Cl)cc3)o2)c(Br)c1,1.18
6,Cc1ccc(CCNC(=O)C2CCC(CNc3c(N4CCCC4)c(=O)c3=O)CC2)cc1 (centres undefined),-0.00435
7,COc1ccc(N(CC(=O)Nc2cccc(C)c2C)S(=O)(=O)c2c(C)n[nH]c2C)cc1,-0.123
8,CN1/C(=C\C(=O)c2cccc(S(=O)(=O)N3CCCCC3)c2)C(C)(C)c2ccccc21,-0.265
9,CCN(CC)c1ccc(NC(=O)COc2ccc(C)cc2)cc1,0.0573
10,Cc1ccc2cc(CN(CC3CCCO3)S(=O)(=O)c3ccc4c(c3)OCCO4)c(=O)[nH]c2c1C (centres undefined),-0.54
11,O=C(CSCc1ccccc1)N1CCN(C(=O)c2ccco2)CC1,-0.152
12,CC(C)C(NC(=O)C1CCCCC1)C(=O)NCc1ccccn1 (centres undefined),0.22
13,COc1ccc([N+](=O)[O-])cc1NC(=O)C(C)c1ccccc1 (centres undefined),-0.84
14,CCSc1nc2ccccc2n1C(=O)c1ccc(S(=O)(=O)N2CCCCC2)cc1,0.0198
15,O=C1C(Cl)=C(N2CCN(Cc3ccccc3)CC2)C(=O)N1Cc1ccccc1,-0.226
16,COC(=O)c1ccc(COC(=O)c2ccc(S(=O)(=O)N3CCC(C)CC3)cc2)o1,0.0439
17,COc1ccc(C(=O)N2CC3(CC(c4ccc(Cl)cc4)=NO3)C[C@H]2C(=O)NCC(N)=O)cc1 (some centres undefined),-0.0916
18,O=C(COC(=O)c1n[nH]c(=O)c2ccccc12)c1ccccc1,-0.19
19,COc1ccc(CCN(C)CCN2C(=O)c3ccccc3C2=O)cc1OC,0.448
20,O=C(/C=C/c1ccc([N+](=O)[O-])cc1)NCCSCc1ccco1,-0.283
21,CCN(CC)S(=O)(=O)c1cc(-c2nn(C)c(=O)c3ccccc23)ccc1C,-0.365
22,COc1cccc(CNc2nc3nc4c(c(=O)n3[nH]2)CCC4)c1,-0.379

row,Compound,z-score
1,O=C(Nc1ccccc1Cl)c1ccc(S(=O)(=O)N2CCOCC2)cc1,-0.252
2,c1ccc(-c2nc3ccccn3c2NCc2ccc3c(c2)OCO3)cc1,-1.08
3,CCn1c(=O)n(CC)c2cc([N+](=O)[O-])ccc21,-0.0668
4,COc1ccccc1C(=O)Nc1cccc(SC)c1,-0.103
5,OCCN1CCN(CC(O)COCc2ccc3c(c2)OCO3)CC1 (centres undefined),0.118
6,COC(=O)c1ccc(C)c(NS(=O)(=O)c2ccc(OC)cc2)c1,-0.353
7,O=CN1CC(=O)N(c2ccccc2)c2c([nH]c3ccccc23)C1,0.383
8,O=C(CSCc1ccco1)Nc1cc(C(F)(F)F)ccc1N1CCOCC1,-0.112
9,CC(=O)Oc1ccc(NC(=O)C2CCCCC2)c(C(=O)O)c1,-0.326
10,CCCC(=O)Nc1nc(-c2ccc(OC)cc2)cs1,0.441
11,O=S(=O)(Nc1cccc2c1ccc1cccn12)c1cccs1,-0.185
12,CCOC(=O)CCc1n[nH]c(=O)[nH]c1=O,-1.42
13,CCOC(=O)Cn1nc(C)n(-c2ccc(C(C)(C)C)cc2)c1=O,-0.122
14,COc1ccc(C(=O)Nc2ccccc2N2CCOCC2)cc1Br,-1.44
15,Cc1cc2c(c(=O)o1)C(C13C=CC(CC1)C3)C(C#N)=C(N)O2 (centres undefined),0.0723
16,Cc1ccc2oc(-c3cccc(NC(=O)c4ccc(Br)o4)c3)nc2c1,-0.833
17,CS(=O)(=O)N(Cc1ccccc1)c1ccc(C(=O)NN=C2CCCCCC2)cc1,0.26
18,O=P(CCCCCCCCCP(=O)(c1ccccc1)c1ccccc1)(c1ccccc1)c1ccccc1,active: -4.87
19,O=C(Nc1ccccc1C(=O)N1CCCCC1)c1cccc(S(=O)(=O)N2CCOCC2)c1,0.694
20,O=C(Nc1ccc(F)cc1)N(Cc1nnc2n1CCCCC2)c1ccccc1,-0.114
21,OCCNCCOc1ccccc1F,-0.06
22,COc1ccccc1CNS(=O)(=O)c1ccc(C)cc1,-0.383

row,Compound,z-score
1,O=C(N1CCOCC1)N1CCC(c2nc(-c3ccc(S(=O)(=O)N4CCOCC4)cc3)no2)CC1,-0.193
2,O=C(CC(Nc1ccccc1)c1ccc(F)cc1)c1ccccc1 (centres undefined),-0.109
3,CCCOC(=O)c1ccc(NC(=O)Oc2ccccc2)cc1,0.454
4,CCOC(=O)C1CCCN(C(=O)CC(c2ccccc2)c2ccccc2)C1 (centres undefined),-0.309
5,Cc1c(NC(=O)COC(=O)C(c2ccc(Cl)cc2)C(C)C)c(=O)n(-c2ccccc2)n1C (centres undefined),-0.457
6,Cc1csc2cc(-c3cccc([N+](=O)[O-])c3)c(-c3cccc([N+](=O)[O-])c3)c[n+]12,0.524
7,COc1ccc(-c2noc(CCCOc3ccccc3)n2)cc1OC,0.0369
8,COc1ccc(-n2c(Cn3nc(C(F)(F)F)cc3C)n[nH]c2=S)cc1,0.507
9,COc1cccc2c(=O)n(CC(=O)Nc3ccc(F)cc3)ccc12,0.283
10,Cn1c2ccccc2c2cc(C(=O)NNS(=O)(=O)c3ccc(F)cc3)sc21,active: 5.09
11,Cc1ccc(S(=O)(=O)N2CN(Cc3ccco3)c3nc4ccccc4nc32)cc1,-0.462
12,COc1ccc(N2CCN(C(=O)C3=NNC(=O)CC3)CC2)cc1,-0.292
13,COc1ccc2nc(NC3=NC(c4ccccc4)CC(=O)N3)nc(C)c2c1 (centres undefined),-0.201
14,CN(C)CCCNC(=O)/C(=N\O)c1ccccc1,0.1
15,Cn1cccc1C(=O)NC(=O)COC(=O)c1ccc(O)cc1,-0.111
16,CCCOc1ccc(-c2nc(C#N)c(NCC3CCCO3)o2)cc1 (centres undefined),-0.765
17,Cc1c(CCO)c(=O)n(-c2ccccc2)n1S(=O)(=O)c1ccc(Cl)cc1,0.251
18,CC(=O)C1=C(C)NC(SCC(=O)c2ccc(Cl)cc2)=C(C#N)C1c1ccco1 (centres undefined),-0.504
19,O=[N+]([O-])c1cccc2ccc(/C=C/c3ccc(Cl)cc3)nc12,-0.242
20,CC(C)C(=O)NNc1nc2ccccc2s1,0.0619
21,CCCCOC(=O)c1nc(Cl)c(Cl)c(N)c1Cl,-0.252
